# In the supplement of paper PMC8728848:
# The other results are listed elsewhere or left out.
# B1: Als3-2 (Candida albicans) (protein)
# chain: KTITGVFNSFNSLTWSNAATYNYKGPGTPTWNAVLGWSLDGTSASPGDTFTLNMPCVFKFTTSQTSVDLTAHGVKYATCQFQAGEEFMTFSTLTCTVSNTLTPSIKALGTVTLPLAFNVGGTGSSVDLEDSKCFTAGTNTVTFNDGGKKISINVDFERSNVDPKGYLTD
# Columns and labels:
# Test in all cases: glycan array binding signal (z-score within array); higher = stronger binding
# Conditions in all cases: glycan notation: IUPAC condensed, linker removed
# [1] = target: Neu5Ac(a2-3)Gal(b1-4)GlcNAc
# How it was run: (§1)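 Columns mapping to the same glycan were averaged after glycan names were converted to IUPAC-condensed notation. The data come from 3228 arrays in the Consortium for Functional Glycomics database, limited to those with an available protein sequence. Binding is reported as a within-array Z-score averaged across arrays of one protein sequence and across linkers.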
# [2] = target: Neu5Ac(a2-3)Gal(b1-4)GlcNAc(b1-2)Man
# How it was run: as §1
# [3] = target: Neu5Ac(a2-3)Gal(b1-4)GlcNAc(b1-2)Man(a1-3)[GlcNAc(b1-4)][Neu5Ac(a2-3)Gal(b1-4)GlcNAc(b1-2)Man(a1-6)]Man(b1-4)GlcNAc(b1-4)GlcNAc
# How it was run: as §1
# [4] = target: Neu5Ac(a2-3)Gal(b1-4)GlcNAc(b1-2)Man(a1-3)[Neu5Ac(a2-3)Gal(b1-4)GlcNAc(b1-2)Man(a1-6)]Man(b1-4)GlcNAc(b1-4)GlcNAc
# How it was run: as §1
# [5] = target: Neu5Ac(a2-3)Gal(b1-4)GlcNAc(b1-2)Man(a1-3)[Neu5Ac(a2-3)Gal(b1-4)GlcNAc(b1-2)Man(a1-6)]Man(b1-4)GlcNAc(b1-4)[Fuc(a1-6)]GlcNAc
# How it was run: as §1
# [6] = target: Neu5Ac(a2-3)Gal(b1-4)GlcNAc(b1-2)Man(a1-3)[Neu5Ac(a2-6)Gal(b1-4)GlcNAc(b1-2)Man(a1-6)]Man(b1-4)GlcNAc(b1-4)GlcNAc
# How it was run: as §1
# [7] = target: Neu5Ac(a2-3)Gal(b1-4)GlcNAc(b1-2)[Neu5Ac(a2-3)Gal(b1-4)GlcNAc(b1-4)]Man(a1-3)[GlcNAc(b1-4)][Neu5Ac(a2-3)Gal(b1-4)GlcNAc(b1-2)[Neu5Ac(a2-3)Gal(b1-4)GlcNAc(b1-6)]Man(a1-6)]Man(b1-4)GlcNAc(b1-4)GlcNAc
# How it was run: as §1
# [8] = target: Neu5Ac(a2-3)Gal(b1-4)GlcNAc(b1-2)[Neu5Ac(a2-3)Gal(b1-4)GlcNAc(b1-4)]Man(a1-3)[GlcNAc(b1-4)][Neu5Ac(a2-3)Gal(b1-4)GlcNAc(b1-4)Man(a1-6)]Man(b1-4)GlcNAc(b1-4)GlcNAc
# How it was run: as §1
# [9] = target: Neu5Ac(a2-3)Gal(b1-4)GlcNAc(b1-2)[Neu5Ac(a2-3)Gal(b1-4)GlcNAc(b1-6)]Man(a1-6)[Neu5Ac(a2-3)Gal(b1-4)GlcNAc(b1-2)Man(a1-3)]Man(b1-4)GlcNAc(b1-4)GlcNAc
# How it was run: as §1
# [10] = target: Neu5Ac(a2-3)Gal(b1-4)GlcNAc(b1-2)[Neu5Ac(a2-3)Gal(b1-4)GlcNAc(b1-6)]Man(a1-6)[Neu5Ac(a2-3)Gal(b1-4)GlcNAc(b1-2)Man(a1-3)][GlcNAc(b1-4)]Man(b1-4)GlcNAc(b1-4)GlcNAc
# How it was run: as §1
# [11] = target: Neu5Ac(a2-3)Gal(b1-4)GlcNAc(b1-3)Gal
# How it was run: as §1
# [12] = target: Neu5Ac(a2-3)Gal(b1-4)GlcNAc(b1-3)Gal(b1-3)GlcNAc
# How it was run: as §1
# [13] = target: Neu5Ac(a2-3)Gal(b1-4)GlcNAc(b1-3)Gal(b1-4)GlcNAc
# How it was run: as §1
# [14] = target: Neu5Ac(a2-3)Gal(b1-4)GlcNAc(b1-3)Gal(b1-4)GlcNAc(b1-2)Man(a1-3)[Neu5Ac(a2-3)Gal(b1-4)GlcNAc(b1-3)Gal(b1-4)GlcNAc(b1-2)Man(a1-6)]Man(b1-4)GlcNAc(b1-4)GlcNAc
# How it was run: as §1
# [15] = target: Neu5Ac(a2-3)Gal(b1-4)GlcNAc(b1-3)Gal(b1-4)GlcNAc(b1-3)Gal(b1-4)GlcNAc
# How it was run: as §1
# [16] = target: Neu5Ac(a2-3)Gal(b1-4)GlcNAc(b1-3)Gal(b1-4)GlcNAc(b1-3)Gal(b1-4)GlcNAc(b1-2)Man(a1-3)[Neu5Ac(a2-3)Gal(b1-4)GlcNAc(b1-3)Gal(b1-4)GlcNAc(b1-3)Gal(b1-4)GlcNAc(b1-2)Man(a1-6)]GalNAc
# How it was run: as §1
# [17] = target: Neu5Ac(a2-3)Gal(b1-4)GlcNAc(b1-3)Gal(b1-4)GlcNAc(b1-3)GalNAc
# How it was run: as §1
# [18] = target: Neu5Ac(a2-3)Gal(b1-4)GlcNAc(b1-3)Gal(b1-4)GlcNAc(b1-3)[Neu5Ac(a2-3)Gal(b1-4)GlcNAc(b1-3)Gal(b1-4)GlcNAc(b1-6)]GalNAc
# How it was run: as §1
# [19] = target: Neu5Ac(a2-3)Gal(b1-4)GlcNAc(b1-3)Gal(b1-4)GlcNAc(b1-6)[Gal(b1-3)]GalNAc
# How it was run: as §1
# [20] = target: Neu5Ac(a2-3)Gal(b1-4)GlcNAc(b1-3)Gal(b1-4)[Fuc(a1-3)]GlcNAc
# How it was run: as §1
# [21] = target: Neu5Ac(a2-3)Gal(b1-4)GlcNAc(b1-3)GalNAc
# How it was run: as §1
# [22] = target: Neu5Ac(a2-3)Gal(b1-4)GlcNAc(b1-3)[Neu5Ac(a2-3)Gal(b1-4)GlcNAc(b1-6)]GalNAc
# How it was run: as §1
# [23] = target: Neu5Ac(a2-3)Gal(b1-4)GlcNAc(b1-6)GalNAc
# How it was run: as §1
# [24] = target: Neu5Ac(a2-3)Gal(b1-4)GlcNAc(b1-6)[Gal(b1-3)]GalNAc
# How it was run: as §1
# [25] = target: Neu5Ac(a2-3)Gal(b1-4)GlcNAc(b1-6)[Neu5Ac(a2-3)Gal(b1-3)]GalNAc
# How it was run: as §1
# [26] = target: Neu5Ac(a2-3)Gal(b1-4)GlcNAc6S
# How it was run: as §1
# [27] = target: Neu5Ac(a2-3)Gal(b1-4)[Fuc(a1-3)]GlcNAc
# How it was run: as §1
# [28] = target: Neu5Ac(a2-3)Gal(b1-4)[Fuc(a1-3)]GlcNAc(b1-2)Man
# How it was run: as §1
# [29] = target: Neu5Ac(a2-3)Gal(b1-4)[Fuc(a1-3)]GlcNAc(b1-3)Gal
# How it was run: as §1
# [30] = target: Neu5Ac(a2-3)Gal(b1-4)[Fuc(a1-3)]GlcNAc(b1-3)Gal(b1-4)GlcNAc
# How it was run: as §1
# [31] = target: Neu5Ac(a2-3)Gal(b1-4)[Fuc(a1-3)]GlcNAc(b1-3)Gal(b1-4)[Fuc(a1-3)]GlcNAc(b1-3)Gal(b1-4)[Fuc(a1-3)]GlcNAc
# How it was run: as §1
# [32] = target: Neu5Ac(a2-3)Gal(b1-4)[Fuc(a1-3)]GlcNAc(b1-3)GalNAc
# How it was run: as §1
# [33] = target: Neu5Ac(a2-3)Gal(b1-4)[Fuc(a1-3)]GlcNAc(b1-6)[Gal(b1-3)]GalNAc
# How it was run: as §1
# [34] = target: Neu5Ac(a2-3)Gal(b1-4)[Fuc(a1-3)]GlcNAc(b1-6)[Neu5Ac(a2-3)Gal(b1-3)]GalNAc
# How it was run: as §1
# [35] = target: Neu5Ac(a2-3)Gal(b1-4)[Fuc(a1-3)]GlcNAc6S
# How it was run: as §1
# [36] = target: Neu5Ac(a2-3)Gal6S(b1-4)GlcNAc
# How it was run: as §1
# [37] = target: Neu5Ac(a2-3)Gal6S(b1-4)[Fuc(a1-3)]GlcNAc
# How it was run: as §1
# Neu5Ac(a2-3)GalNAc = target: Neu5Ac(a2-3)GalNAc
# How it was run: as §1
binder,measurement,setting,value
B1,glycan array binding signal (z-score),[1],-0.128
same,glycan array binding signal (z-score),[2],3.09
same,glycan array binding signal (z-score),[3],-0.624
same,glycan array binding signal (z-score),[4],1.26
same,glycan array binding signal (z-score),[5],-0.654
same,glycan array binding signal (z-score),[6],-0.401
same,glycan array binding signal (z-score),[7],3.2
same,glycan array binding signal (z-score),[8],0.714
same,glycan array binding signal (z-score),[9],-0.002
same,glycan array binding signal (z-score),[10],-0.749
same,glycan array binding signal (z-score),[11],-0.687
same,glycan array binding signal (z-score),[12],-0.584
same,glycan array binding signal (z-score),[13],0.572
same,glycan array binding signal (z-score),[14],0.388
same,glycan array binding signal (z-score),[15],0.238
same,glycan array binding signal (z-score),[16],2.23
same,glycan array binding signal (z-score),[17],0.384
same,glycan array binding signal (z-score),[18],6.15
same,glycan array binding signal (z-score),[19],-0.019
same,glycan array binding signal (z-score),[20],-0.621
same,glycan array binding signal (z-score),[21],-0.374
same,glycan array binding signal (z-score),[22],1.61
same,glycan array binding signal (z-score),[23],-0.387
same,glycan array binding signal (z-score),[24],-0.572
same,glycan array binding signal (z-score),[25],0.634
same,glycan array binding signal (z-score),[26],-0.499
same,glycan array binding signal (z-score),[27],-0.621
same,glycan array binding signal (z-score),[28],0.73
same,glycan array binding signal (z-score),[29],-0.657
same,glycan array binding signal (z-score),[30],-0.112
same,glycan array binding signal (z-score),[31],-0.602
same,glycan array binding signal (z-score),[32],0.114
same,glycan array binding signal (z-score),[33],-0.041
same,glycan array binding signal (z-score),[34],2.39
same,glycan array binding signal (z-score),[35],-0.619
same,glycan array binding signal (z-score),[36],-0.712
same,glycan array binding signal (z-score),[37],-0.667
same,glycan array binding signal (z-score),Neu5Ac(a2-3)GalNAc,0.082
